The list shows a part of the results. Single values are uncertain, as repeats are few or missing.
Each compound was assayed on KB-V1 (assay: growth inhibition relative to DMSO control (SRB); cervical cancer cells: KB-3-1 is the parent and KB-V1 overexpresses MDR1; SRB is the sulforhodamine B stain; higher = more growth inhibition). Conditions: 1 µM; 72 h.
`CN1CCc2nc(C(=O)N[C@@H]3C[C@@H](C(=O)N(C)C)CC[C@@H]3NC(=O)C(=O)Nc3ccc(Cl)cn3)sc2C1` [Edoxaban] was tested, and the growth inhibition was under 0%.
With `C[C@@H](O[C@H]1OCCN(Cc2n[nH]c(=O)[nH]2)[C@H]1c1ccc(F)cc1)c1cc(C(F)(F)F)cc(C(F)(F)F)c1` [Aprepitant] the growth inhibition was 43.6%.
For `Cc1cc2c(F)c(Oc3ncnn4cc(OC[C@@H](C)OC(=O)[C@H](C)N)c(C)c34)ccc2[nH]1`, the growth inhibition was 32.4%.
`COc1ccc2cc1Oc1ccc(cc1)C[C@H]1c3cc(c(OC)cc3CCN1C)Oc1c(OC)c(OC)cc3c1[C@H](C2)N(C)CC3` [Tetrandrine] gave a growth inhibition of 40.2%.
With `N#CC1(c2ccc(NC(=O)c3cccnc3NCc3ccncc3)cc2)CCCC1` [Apatinib] the growth inhibition was under 0%.

— the supplement of paper PMC7266297
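Note: Read-out is SRB optical density at 490 nm, with the control being wells given 0.5% DMSO vehicle, and compound added one day after cells were plated.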
